# Test results published in paper PMC7459111.
# By UniProt entry, the sequences of proteins in these tests, tags left out. Residues count along the entry.
# UniProt Q03265, residues 44-553: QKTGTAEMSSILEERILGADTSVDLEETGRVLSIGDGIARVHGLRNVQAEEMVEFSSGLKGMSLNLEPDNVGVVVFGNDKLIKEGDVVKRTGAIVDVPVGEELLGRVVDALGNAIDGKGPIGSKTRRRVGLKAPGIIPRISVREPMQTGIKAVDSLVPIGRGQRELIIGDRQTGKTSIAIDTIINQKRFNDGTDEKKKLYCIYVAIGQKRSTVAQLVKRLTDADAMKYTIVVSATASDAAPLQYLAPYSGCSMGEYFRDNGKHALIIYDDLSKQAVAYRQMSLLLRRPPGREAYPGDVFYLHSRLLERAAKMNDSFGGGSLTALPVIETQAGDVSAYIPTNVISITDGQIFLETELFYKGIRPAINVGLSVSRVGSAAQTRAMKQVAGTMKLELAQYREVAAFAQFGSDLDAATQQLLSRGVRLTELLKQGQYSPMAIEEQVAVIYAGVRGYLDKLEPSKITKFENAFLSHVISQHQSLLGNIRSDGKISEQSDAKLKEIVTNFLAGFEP
# UniProt Q9D6J5, residues 29-186: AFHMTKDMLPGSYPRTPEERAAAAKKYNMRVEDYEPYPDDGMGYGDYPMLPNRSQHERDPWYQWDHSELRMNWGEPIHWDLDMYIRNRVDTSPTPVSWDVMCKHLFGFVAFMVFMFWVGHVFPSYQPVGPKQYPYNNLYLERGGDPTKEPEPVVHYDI
# Results are given in words; binding and its absence hold for the method and conditions named. Binding seen in cells or lysates may run through a third protein. Some results given as binding are weak or reduced against the parent protein; the word gives no strength.
# Target: T1, regulator of G-protein signaling 12 (RGS12) (mouse (endogenous in mouse chondrocytes)) (UniProt Q8CGE9)
# T1 sequence: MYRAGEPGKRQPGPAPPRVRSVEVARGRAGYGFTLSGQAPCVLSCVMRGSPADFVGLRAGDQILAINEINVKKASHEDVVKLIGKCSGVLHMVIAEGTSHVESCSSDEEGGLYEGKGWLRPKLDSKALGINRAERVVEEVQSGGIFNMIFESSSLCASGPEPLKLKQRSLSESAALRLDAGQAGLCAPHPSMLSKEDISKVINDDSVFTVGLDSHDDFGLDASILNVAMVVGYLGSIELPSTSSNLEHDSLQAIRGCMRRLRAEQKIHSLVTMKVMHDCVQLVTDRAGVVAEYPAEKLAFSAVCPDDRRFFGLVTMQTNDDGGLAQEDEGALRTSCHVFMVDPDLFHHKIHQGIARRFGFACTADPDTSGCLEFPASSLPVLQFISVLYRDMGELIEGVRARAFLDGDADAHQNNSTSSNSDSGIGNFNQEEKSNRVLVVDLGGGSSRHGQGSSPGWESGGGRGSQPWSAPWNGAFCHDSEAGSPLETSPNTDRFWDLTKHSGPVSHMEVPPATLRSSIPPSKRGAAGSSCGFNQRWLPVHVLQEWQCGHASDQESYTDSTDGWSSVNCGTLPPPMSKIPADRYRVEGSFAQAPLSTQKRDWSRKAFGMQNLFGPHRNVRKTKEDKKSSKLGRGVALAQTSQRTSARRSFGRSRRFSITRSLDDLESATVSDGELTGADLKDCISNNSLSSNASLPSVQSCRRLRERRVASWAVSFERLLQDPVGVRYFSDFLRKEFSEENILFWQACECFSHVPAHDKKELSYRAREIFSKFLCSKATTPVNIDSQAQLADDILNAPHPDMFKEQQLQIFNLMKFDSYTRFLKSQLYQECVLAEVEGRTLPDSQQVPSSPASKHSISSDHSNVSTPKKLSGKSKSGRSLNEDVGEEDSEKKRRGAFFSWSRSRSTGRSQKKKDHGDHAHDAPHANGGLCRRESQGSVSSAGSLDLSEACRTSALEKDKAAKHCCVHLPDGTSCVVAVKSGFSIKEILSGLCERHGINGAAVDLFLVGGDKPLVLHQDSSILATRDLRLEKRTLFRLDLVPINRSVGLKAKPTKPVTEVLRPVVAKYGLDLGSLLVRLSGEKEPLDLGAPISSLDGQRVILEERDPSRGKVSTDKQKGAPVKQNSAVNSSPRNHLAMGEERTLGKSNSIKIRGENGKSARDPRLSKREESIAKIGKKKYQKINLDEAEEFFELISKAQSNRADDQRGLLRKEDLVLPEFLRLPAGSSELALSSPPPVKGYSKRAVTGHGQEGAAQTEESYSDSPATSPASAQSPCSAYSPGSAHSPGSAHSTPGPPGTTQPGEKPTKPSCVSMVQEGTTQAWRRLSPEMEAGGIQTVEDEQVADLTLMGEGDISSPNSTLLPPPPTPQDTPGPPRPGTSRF
# Experiment: co-IP; cell lysates of mouse chondrocytes (NP-40 buffer) incubated with anti-RGS12 or control IgG, protein A/G beads; bound protein blotted with the OXPHOS antibodies
row,binding,Substance
1,binds,ATP Synthase F1 Subunit Alpha (ATP5A) (from UniProt Q03265 44-553)
2,no binding,NDUFB8 (from UniProt Q9D6J5 29-186)
3,no binding,MTCO1 (from UniProt P00397 1-514)
